Source: patent publication US9873709B2 (priority 2013, dated 2018)
pKi: −log10 of the molar value.

The compounds below were run against isolated recombinant JAK1 kinase domain (Homo sapiens (Human), UniProt P23458). Conditions: read-out: JAK1 Ki; isolated recombinant JAK1 kinase domain, 25 μM ATP.
`CC1CCN(C2CCN(C(=O)c3ccc(Nc4nc5c(C6=CCN(C(=O)CCC(F)(F)F)CC6)cccn5n4)cc3)CC2)CC1` [Example 2-208, 4,4,4-trifluoro-1-[4-[2-[4-[4-(4-methyl-1-piperidyl)piperidine-1-carbonyl]anilino]-[1,2,4]triazolo[1,5-a]pyridin-8-yl]-3,6-dihydro-2H-pyridin-1-yl]butan-1-one] was tested, and the pKi was 9.02.
`COCCN(C(=O)c1ccc(Nc2nc3c(C4=CCN(C(=O)CCC(F)(F)F)CC4)cccn3n2)cc1)C1CCN(C)CC1` [Example 2-209, N-(2-methoxyethyl)-N-(1-methyl-4-piperidyl)-4-[[8-[1-(4,4,4-trifluorobutanoyl)-3,6-dihydro-2H-pyridin-4-yl]-[1,2,4]triazolo[1,5-a]pyridin-2-yl]amino]benzamide] gave a pKi of 8.70.
Work on `O=C(CCC(F)(F)F)N1CC=C(c2cccn3nc(Nc4ccc(C(=O)N5CCC(N6CCOCC6)CC5)cc4)nc23)CC1` [Example 2-210, 4,4,4-trifluoro-1-[4-[2-[4-(4-morpholinopiperidine-1-carbonyl)anilino]-[1,2,4]triazolo[1,5-a]pyridin-8-yl]-3,6-dihydro-2H-pyridin-1-yl]butan-1-one] yielded a pKi of 9.09.
In the case of `CN(CCc1cccnc1)C(=O)c1ccc(Nc2nc3c(C4=CCN(C(=O)CCC(F)(F)F)CC4)cccn3n2)cc1` [Example 2-212, N-methyl-N-[2-(3-pyridyl)ethyl]-4-[[8-[1-(4,4,4-trifluorobutanoyl)-3,6-dihydro-2H-pyridin-4-yl]-[1,2,4]triazolo[1,5-a]pyridin-2-yl]amino]benzamide], the pKi was 9.04.
`CC(C)(CNC(=O)c1ccc(Nc2nc3c(C4=CCN(C(=O)CCC(F)(F)F)CC4)cccn3n2)cc1)N1CCOCC1` [Example 2-213, N-(2-methyl-2-morpholino-propyl)-4-[[8-[1-(4,4,4-trifluorobutanoyl)-3,6-dihydro-2H-pyridin-4-yl]-[1,2,4]triazolo[1,5-a]pyridin-2-yl]amino]benzamide] was tested, and the pKi was 9.12.
In the case of `CN1CCCCC1CNC(=O)c1ccc(Nc2nc3c(C4=CCN(C(=O)CCC(F)(F)F)CC4)cccn3n2)cc1` (stereo not shown) [Example 2-214, N-[(1-methyl-2-piperidyl)methyl]-4-[[8-[1-(4,4,4-trifluorobutanoyl)-3,6-dihydro-2H-pyridin-4-yl]-[1,2,4]triazolo[1,5-a]pyridin-2-yl]amino]benzamide], the pKi was 9.21.
For `Cc1ccc(C2CCN(C(=O)c3ccc(Nc4nc5c(C6=CCN(C(=O)CCC(F)(F)F)CC6)cccn5n4)cc3)CC2)nc1` [Example 2-215, 4,4,4-trifluoro-1-[4-[2-[4-[4-(5-methyl-2-pyridyl)piperidine-1-carbonyl]anilino]-[1,2,4]triazolo[1,5-a]pyridin-8-yl]-3,6-dihydro-2H-pyridin-1-yl]butan-1-one], the pKi was 9.26.
`Cc1cccc(CCNC(=O)c2ccc(Nc3nc4c(C5=CCN(C(=O)CCC(F)(F)F)CC5)cccn4n3)cc2)n1` [Example 2-216, N-[2-(6-methyl-2-pyridyl)ethyl]-4-[[8-[1-(4,4,4-trifluorobutanoyl)-3,6-dihydro-2H-pyridin-4-yl]-[1,2,4]triazolo[1,5-a]pyridin-2-yl]amino]benzamide] showed a pKi of 9.11.
`CN(C)c1cc(CC2CCN(C(=O)c3ccc(Nc4nc5c(C6=CCN(C(=O)CCC(F)(F)F)CC6)cccn5n4)cc3)C2)ncn1` (stereo not shown) [Example 2-217, 1-[4-[2-[4-[3-[[6-(dimethylamino)pyrimidin-4-yl]methyl]pyrrolidine-1-carbonyl]anilino]-[1,2,4]triazolo[1,5-a]pyridin-8-yl]-3,6-dihydro-2H-pyridin-1-yl]-4,4,4-trifluoro-butan-1-one] was tested, and the pKi was 9.12.
`Cc1ccc(CC2CCN(C(=O)c3ccc(Nc4nc5c(C6=CCN(C(=O)CCC(F)(F)F)CC6)cccn5n4)cc3)C2)nc1` (stereo not shown) [Example 2-218, 4,4,4-trifluoro-1-[4-[2-[4-[3-[(5-methyl-2-pyridyl)methyl]pyrrolidine-1-carbonyl]anilino]-[1,2,4]triazolo[1,5-a]pyridin-8-yl]-3,6-dihydro-2H-pyridin-1-yl]butan-1-one] was tested, and the pKi was 9.00.
Work on `CCN(Cc1ccncc1)C(=O)c1ccc(Nc2nc3c(C4=CCN(C(=O)CCC(F)(F)F)CC4)cccn3n2)cc1` [Example 2-219, N-ethyl-N-(4-pyridylmethyl)-4-[[8-[1-(4,4,4-trifluorobutanoyl)-3,6-dihydro-2H-pyridin-4-yl]-[1,2,4]triazolo[1,5-a]pyridin-2-yl]amino]benzamide] yielded a pKi of 9.18.
`O=C(NCCc1cccnc1)c1ccc(Nc2nc3c(C4=CCN(C(=O)CCC(F)(F)F)CC4)cccn3n2)cc1` [Example 2-220, N-[2-(3-pyridyl)ethyl]-4-[[8-[1-(4,4,4-trifluorobutanoyl)-3,6-dihydro-2H-pyridin-4-yl]-[1,2,4]triazolo[1,5-a]pyridin-2-yl]amino]benzamide] was tested, and the pKi was 9.24.
`CC1CC1C(=O)N1CC=C(c2cccn3nc(Nc4ccc(C(=O)N(C)C5CCN(C)CC5)cc4)nc23)CC1` (stereo not shown) [Example 2-223, N-methyl-4-[[8-[1-(2-methylcyclopropanecarbonyl)-3,6-dihydro-2H-pyridin-4-yl]-[1,2,4]triazolo[1,5-a]pyridin-2-yl]amino]-N-(1-methyl-4-piperidyl)benzamide] was tested, and the pKi was 8.87.
`CN1CCC(N(C)C(=O)c2ccc(Nc3nc4c(C5=CCN(C(=O)OCC(F)F)CC5)cccn4n3)cc2)CC1` [Example 2-225, 2,2-difluoroethyl 4-[2-[4-[methyl-(1-methyl-4-piperidyl)carbamoyl]anilino]-[1,2,4]triazolo[1,5-a]pyridin-8-yl]-3,6-dihydro-2H-pyridine-1-carboxylate] showed a pKi of 8.89.
In the case of `CCOC(=O)N1CC=C(c2cccn3nc(Nc4ccc(C(=O)NCCN5CCCC(C)C5)cc4)nc23)CC1` (stereo not shown) [Example 2-226, ethyl 4-[2-[4-[2-(3-methyl-1-piperidyl)ethylcarbamoyl]anilino]-[1,2,4]triazolo[1,5-a]pyridin-8-yl]-3,6-dihydro-2H-pyridine-1-carboxylate], the pKi was 8.47.
`CCOC(=O)N1CC=C(c2cccn3nc(Nc4ccc(C(=O)N5CCN(CCN(C)C)CC5)cc4)nc23)CC1` [Example 2-227, ethyl 4-[2-[4-[4-[2-(dimethylamino)ethyl]piperazine-1-carbonyl]anilino]-[1,2,4]triazolo[1,5-a]pyridin-8-yl]-3,6-dihydro-2H-pyridine-1-carboxylate] was tested, and the pKi was 8.43.
`CCOC(=O)N1CC=C(c2cccn3nc(Nc4ccc(C(=O)N5CCOC(c6ccccn6)C5)cc4)nc23)CC1` (stereo not shown) [Example 2-228, ethyl 4-[2-[4-[2-(2-pyridyl)morpholine-4-carbonyl]anilino]-[1,2,4]triazolo[1,5-a]pyridin-8-yl]-3,6-dihydro-2H-pyridine-1-carboxylate] was tested, and the pKi was 8.49.
Work on `CCOC(=O)N1CC=C(c2cccn3nc(Nc4ccc(C(=O)NCCc5cccc(C)n5)cc4)nc23)CC1` [Example 2-229, ethyl 4-[2-[4-[2-(6-methyl-2-pyridyl)ethylcarbamoyl]anilino]-[1,2,4]triazolo[1,5-a]pyridin-8-yl]-3,6-dihydro-2H-pyridine-1-carboxylate] yielded a pKi of 8.47.
In the case of `CCOC(=O)N1CC=C(c2cccn3nc(Nc4ccc(C(=O)NCCNC)cc4)nc23)CC1` [Example 2-230, ethyl 4-[2-[4-[2-(methylamino)ethylcarbamoyl]anilino]-[1,2,4]triazolo[1,5-a]pyridin-8-yl]-3,6-dihydro-2H-pyridine-1-carboxylate], the pKi was 8.62.
